Source: PubChem BioAssay AID2546 (National Center for Advancing Translational Sciences (NCATS), 2010)
“And” between values parts separate entries of the source, which are not always exact repeats. Identical values can stand only once. Hit rate of the full screen: of about 310,000 compounds, about 11,000 (3.5%) were called active. Inconclusive results, whose numbers are uncertain, are shown with a selection of clear calls. Calls come from the whole dose curve; as a rule, active = well fitted inhibition curve with a large enough effect; inconclusive = small, poorly fitted or top-dose-only effect, or effect the other way; inactive = flat fitted curve, though single readings scatter. No potency is given beside an inconclusive call; the fits are too rough.

assay: VP16 counterscreen qHTS for inhibitors of ROR gamma transcriptional activity; conditions: Drosophila S2 Gal4-VP16 UAS-luciferase, luminescence, 20 h; activity, negative = inhibition: at 53.6 µM (top of the series);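 note: Gal4-VP16 expression switched on by copper sulfate through the metallothionein promoter; nearly all actives have a fitted effect of over 50% in size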
% is set by controls: 0 for no effect and ±100 for the full control effect; potency is the fitted concentration of half-maximal effect; tags give direction and shape of the fitted curve.

Structure (SMILES) | Potency | activity, negative = inhibition
Cc1ccc(S(=O)(=O)N2CCC(C(=O)N3CCN(Cc4ccccc4)CC3)CC2)cc1 | inactive | 
CCCCn1nc(CC(=O)NCCN(CC)CC)c2ccccc2c1=O | inactive | 
COc1ccccc1NC(=O)c1ccc(C)c(S(=O)(=O)N2CCCCC2)c1 | inconclusive [activator, single point] | 
CCn1c2ccccc2c2cc(/C=N/n3c(C)nnc3C)ccc21 | inconclusive [inhibitor, single point] | 
CCN(C(=S)Nc1cccc(C)c1)c1ccccc1 | inconclusive [inhibitor, single point] | 
CC(C)(C)c1ccc(C(=O)Nc2ccc(CC(=O)O)cc2)o1 | active: 0.794 µM | 
CCCCn1c(=O)nc2n(-c3ccc(C)cc3)c3ccccc3cc-2c1=O | inactive | 
COC(=O)c1ccc(C)c(NC(=S)NCc2ccc(Cl)cc2)c1 | active: 14.1 µM | 
CC1(C)CC(=O)C(Br)=C(O)C1 | inactive | 
COc1ccccc1C(=O)NNC1=C(C(=O)C(F)(F)F)CCC1 | active: 5.01 µM | 
CSCC[C@H](NS(=O)(=O)c1ccc(C)cc1)C(=O)N1CCC(C(=O)N[C@@H](Cc2ccccc2)C(=O)O)CC1 | inactive | 
CC1=NN(C(N)=S)C(=O)C1N=Nc1ccccc1 (stereo not drawn) | active: 0.891 µM | 
NS(=O)(=O)c1ccc(NC(=O)COC(=O)C2(c3ccccc3F)CCCC2)cc1 | inconclusive [activator, single point] | 
O=C(Nc1ccccc1)C1=C[C@@H](c2ccc(C(F)(F)F)cc2)C[C@@H](OCc2ccc(CO)cc2)O1 | inconclusive [inhibitor, single point] | 
CCOc1ccc(S(=O)(=O)N(CC(=O)N2CCC(C(N)=O)CC2)c2ccc(F)cc2)cc1 | inactive | 
COc1ccc(Nc2nc(-c3sc(C)nc3C)cs2)c(OC)c1 | inactive | 
O=C(NNC(=O)c1cccc(S(=O)(=O)N2CCc3ccccc32)c1)c1ccccc1 | inconclusive [inhibitor, single point] | 
Cc1ccc(SCc2ccc(C(=O)N3CCCC3)cc2)cc1 | inactive | 
Cc1cc(C)c2c(N)c(C(=O)Nc3ccccc3F)sc2n1 | inconclusive [activator, single point] | 
O=C(CCN1CCN(C(=O)c2ccccc2)CC1)c1ccc(Br)cc1 | inconclusive [inhibitor, single point] | 
CCCOc1ccc(C(=O)NNC(=S)NC(=O)c2ccccc2[N+](=O)[O-])cc1 | active: 20 µM | 
CC(=O)c1cnc(Nc2cccc(C)c2)s1 | inconclusive [activator, partial curve] | 
CCCN1CCN(CCCNC(=O)c2ccc3nc(N4CCC(C)CC4)sc3c2)CC1 | inconclusive [inhibitor, single point] | 
Cc1cc(NC(=O)C2CCN(S(=O)(=O)c3c(C)noc3C)CC2)ccc1Br | inconclusive [inhibitor, single point] | 

Structure (SMILES) | Potency | activity, negative = inhibition
S=c1[nH]nc(-c2cccs2)n1Cc1ccccc1 | inconclusive [inhibitor, partial curve] | 
CCc1nnc2n1N=C(c1cccc([N+](=O)[O-])c1)CS2 | inconclusive [inhibitor, single point] | 
N#C/C(=C\c1ccccc1[N+](=O)[O-])C(=O)NC1CCCCC1 | active: 8.91 µM | 
O=C(N/N=C/c1ccc(Br)o1)c1ccc2c(c1)OCCO2 | inconclusive [inhibitor, single point] | 
Cc1nc2cc(NC(=O)N3c4ccccc4CC3C)ccc2n1C (stereo not drawn) | inconclusive [inhibitor, partial curve] | 
Nc1nnc(SCC(=O)Nc2sc3c(c2C(=O)c2ccccc2)CCCC3)s1 | inconclusive [inhibitor, single point] | 
Cn1cccc1C1Nc2ccccc2NC2=C1C(=O)CC(C)(C)C2 (stereo not drawn) | inconclusive [inhibitor, single point] | 
COC(=O)C1=CN(c2ccc(OC)cc2)C=C(C(=O)OC)C1c1ccc([N+](=O)[O-])cc1 | inactive | 
O=C(CCl)Nc1ccc(Sc2ccc(NC(=O)CCl)cc2)cc1 | inconclusive [inhibitor, single point] | 
C/C(=N\Nc1ccc(S(N)(=O)=O)cc1[N+](=O)[O-])c1cccs1 | inconclusive [inhibitor, single point] | 
NC(CS)C(=O)O (stereo not drawn) | inactive | 
Cc1ccc(CSCC(=O)N/N=C/c2sccc2C)cc1 | inconclusive [inhibitor, single point] | 
Brc1ccc(NC2=Nc3ccccc3CC2)cc1 | inconclusive [inhibitor, single point] | 
C=CCNC(=O)NC(=S)c1ccccc1 | inconclusive [inhibitor, single point] | 
Cc1ccc(/C=C2/NC(=O)[C@H](C)NC2=O)cc1 | inactive | 
COc1cc([N+](=O)[O-])ccc1-c1ccc(/C=N/NC(=O)c2ccccc2O)o1 | active: 3.98 µM | 
COc1ccc(/C=C/C(=O)CC(O)(c2ccccc2)C(F)(F)F)cc1 (stereo not drawn) | inconclusive [inhibitor, single point] | 
CCc1ccc(CN(Cc2cccnc2)C(=O)/C=C/c2ccc(OC)cc2)cc1 | inactive | 
OCC1OC(C#Cc2ccccc2)C=CC1O (stereo not drawn) |  | inactive: 25.1% [at 10 µM] and inactive: -1.24% [at 10 µM] and inactive: -0.694% [at 10 µM]
O=C(NC(=S)Nc1ccc(CN2CCOCC2)cc1)c1ccc([N+](=O)[O-])cc1 | active: 10 µM | 
Clc1cccc(Cl)c1/C=N\Nc1nccs1 | inconclusive [inhibitor, single point] | 
COP(=O)(OC)c1nc(-c2ccccc2)oc1NCc1ccccc1 | inactive | 
CSCCC(NC(=O)C12CC3CC(CC(C3)C1)C2)C(=O)OCC(=O)c1ccc(C)cc1 (stereo not drawn) | inconclusive [activator, single point] | 
O=C(NCc1ccco1)c1ccc(-c2ccc(Cl)cc2)o1 | inconclusive [activator, single point] | 
